The values that follow are results of earlier work, collected in paper PMC11006913.

Some of the results follow.

The first data set addresses NKX2-5 K183E (Homo sapiens) (UniProt P52952). To be noted: PBM; conditions not shown; double strand, one strand shown; scale: upbm affinity estimate (log intensity, higher = more binding, comparable within an allelic series).
Turning to GCTGACCC [8-mer GCTGACCC], the binding signal is 10.3.

Consider CACTTCAC [8-mer CACTTCAC], for which the binding signal was 11.4.

For the sequence ACCGGCCT [8-mer ACCGGCCT], the binding signal was 9.95.

As to AAGTGGGT [8-mer AAGTGGGT], the binding signal was 11.6.

Regarding CCCACTTA [8-mer CCCACTTA], the binding signal is 12.1.

With CGCGGTCC [8-mer CGCGGTCC], the binding signal was 10.1.

Take CCGGACAG [8-mer CCGGACAG]: the binding signal is 10.3.

For the sequence CGGCGGGA [8-mer CGGCGGGA], the binding signal was 9.94.

For AAGTGGCA [8-mer AAGTGGCA], the binding signal was 11.7.

On to GCGGTGCA [8-mer GCGGTGCA], for which the binding signal was 10.1.

With CGGGCCAG [8-mer CGGGCCAG], the binding signal was 10.1.

On to AACACTTG [8-mer AACACTTG], for which the binding signal is 11.1.

As for CAACCTGG [8-mer CAACCTGG], the binding signal was 10.4.

Take AAGTGTGC [8-mer AAGTGTGC]: the binding signal was 10.9.

On to AAGTGGTG [8-mer AAGTGGTG], for which the binding signal is 11.6.

As for AAACCGGT [8-mer AAACCGGT], the binding signal is 10.3.

In the case of TAAGTGTA [8-mer TAAGTGTA], the binding signal was 11.5.

As to CCTCAAGA [8-mer CCTCAAGA], the binding signal is 10.9.

As for AGTACTTA [8-mer AGTACTTA], the binding signal is 11.2.

With CACTTGAG [8-mer CACTTGAG], the binding signal is 11.8.

CTTCCCCC [8-mer CTTCCCCC]: the binding signal was 10.2.

Regarding CAAGTACC [8-mer CAAGTACC], the binding signal was 11.

For AACACGGC [8-mer AACACGGC], the binding signal was 10.3.

On to AGCTCTTG [8-mer AGCTCTTG], for which the binding signal was 10.8.

Turning to ATACTTCA [8-mer ATACTTCA], the binding signal is 11.

Turning to GTACTTCA [8-mer GTACTTCA], the binding signal is 11.1.

Turning to ACTTAAGT [8-mer ACTTAAGT], the binding signal is 11.3.

In the case of ACAAGTAC [8-mer ACAAGTAC], the binding signal is 11.

Take GCACTCGA [8-mer GCACTCGA]: the binding signal is 11.

Consider CGGGAACC [8-mer CGGGAACC], for which the binding signal was 10.2.

Turning to AAGTGGGG [8-mer AAGTGGGG], the binding signal was 11.4.

As to CCTCTTGA [8-mer CCTCTTGA], the binding signal was 11.9.

With AAGTACTC [8-mer AAGTACTC], the binding signal was 10.9.

As for GCAGGCAC [8-mer GCAGGCAC], the binding signal is 10.2.

In the case of CGGCGTAC [8-mer CGGCGTAC], the binding signal is 10.3.

On to AAGTACCT [8-mer AAGTACCT], for which the binding signal is 11.

For GCAGGGGC [8-mer GCAGGGGC], the binding signal was 10.1.

Regarding CCCGGGCA [8-mer CCCGGGCA], the binding signal was 10.1.

For the sequence CACTTACC [8-mer CACTTACC], the binding signal is 11.4.

In the case of CAGCCCTG [8-mer CAGCCCTG], the binding signal was 10.2.

The target in a further data set is NKX2-5 R161P (Homo sapiens) (UniProt P52952). The following applies: PBM; conditions not shown; double strand, one strand shown; scale: upbm affinity estimate (log intensity, higher = more binding, comparable within an allelic series).
On to GCTGACCC [8-mer GCTGACCC], for which the binding signal is 10.3.

As for CACTTCAC [8-mer CACTTCAC], the binding signal was 12.5.

For ACCGGCCT [8-mer ACCGGCCT], the binding signal is 10.1.

As for AAGTGGGT [8-mer AAGTGGGT], the binding signal is 12.4.

CCCACTTA [8-mer CCCACTTA]: the binding signal is 13.1.

As to CGCGGTCC [8-mer CGCGGTCC], the binding signal is 10.4.

As to CCGGACAG [8-mer CCGGACAG], the binding signal was 10.2.

For the sequence CGGCGGGA [8-mer CGGCGGGA], the binding signal is 10.

Turning to AAGTGGCA [8-mer AAGTGGCA], the binding signal was 12.4.

As to GCGGTGCA [8-mer GCGGTGCA], the binding signal was 10.3.

As to CGGGCCAG [8-mer CGGGCCAG], the binding signal was 10.3.

For AACACTTG [8-mer AACACTTG], the binding signal is 12.2.

Turning to CAACCTGG [8-mer CAACCTGG], the binding signal is 10.6.

For the sequence AAGTGTGC [8-mer AAGTGTGC], the binding signal was 12.

For the sequence AAGTGGTG [8-mer AAGTGGTG], the binding signal is 12.5.

In the case of AAACCGGT [8-mer AAACCGGT], the binding signal was 10.3.

In the case of TAAGTGTA [8-mer TAAGTGTA], the binding signal was 12.6.

For the sequence CCTCAAGA [8-mer CCTCAAGA], the binding signal is 11.5.

As for AGTACTTA [8-mer AGTACTTA], the binding signal was 12.8.

In the case of CACTTGAG [8-mer CACTTGAG], the binding signal is 13.2.

Turning to CTTCCCCC [8-mer CTTCCCCC], the binding signal is 10.3.

In the case of CAAGTACC [8-mer CAAGTACC], the binding signal is 12.7.

Turning to AACACGGC [8-mer AACACGGC], the binding signal was 10.3.

With AGCTCTTG [8-mer AGCTCTTG], the binding signal is 11.4.

On to ATACTTCA [8-mer ATACTTCA], for which the binding signal is 11.9.

Take GTACTTCA [8-mer GTACTTCA]: the binding signal was 12.5.

For the sequence ACTTAAGT [8-mer ACTTAAGT], the binding signal was 12.7.

Take ACAAGTAC [8-mer ACAAGTAC]: the binding signal is 12.5.

Take GCACTCGA [8-mer GCACTCGA]: the binding signal is 12.4.

For the sequence CGGGAACC [8-mer CGGGAACC], the binding signal was 10.4.

With AAGTGGGG [8-mer AAGTGGGG], the binding signal is 12.4.

As to CCTCTTGA [8-mer CCTCTTGA], the binding signal was 12.5.

As for AAGTACTC [8-mer AAGTACTC], the binding signal was 12.7.

As to GCAGGCAC [8-mer GCAGGCAC], the binding signal was 10.4.

CGGCGTAC [8-mer CGGCGTAC]: the binding signal was 10.3.

AAGTACCT [8-mer AAGTACCT]: the binding signal is 12.7.

As for GCAGGGGC [8-mer GCAGGGGC], the binding signal is 10.4.

On to CCCGGGCA [8-mer CCCGGGCA], for which the binding signal was 10.2.

In the case of CACTTACC [8-mer CACTTACC], the binding signal is 12.5.

Turning to CAGCCCTG [8-mer CAGCCCTG], the binding signal was 10.2.

In a further data set the target is NKX2-5 R190C (Homo sapiens) (UniProt P52952). The following applies: PBM; conditions not shown; double strand, one strand shown; scale: upbm affinity estimate (log intensity, higher = more binding, comparable within an allelic series).
As to GCTGACCC [8-mer GCTGACCC], the binding signal is 10.3.

On to CACTTCAC [8-mer CACTTCAC], for which the binding signal is 10.8.

ACCGGCCT [8-mer ACCGGCCT]: the binding signal was 9.99.

For AAGTGGGT [8-mer AAGTGGGT], the binding signal is 10.4.

CCCACTTA [8-mer CCCACTTA]: the binding signal is 10.8.

For CGCGGTCC [8-mer CGCGGTCC], the binding signal is 10.

Regarding CCGGACAG [8-mer CCGGACAG], the binding signal was 10.3.

As for CGGCGGGA [8-mer CGGCGGGA], the binding signal was 9.91.

AAGTGGCA [8-mer AAGTGGCA]: the binding signal was 10.7.

As for GCGGTGCA [8-mer GCGGTGCA], the binding signal is 10.1.

CGGGCCAG [8-mer CGGGCCAG]: the binding signal is 10.1.

Consider AACACTTG [8-mer AACACTTG], for which the binding signal is 10.7.

For CAACCTGG [8-mer CAACCTGG], the binding signal was 10.4.

For the sequence AAGTGTGC [8-mer AAGTGTGC], the binding signal is 10.7.

Turning to AAGTGGTG [8-mer AAGTGGTG], the binding signal was 10.6.

With AAACCGGT [8-mer AAACCGGT], the binding signal was 10.3.

On to TAAGTGTA [8-mer TAAGTGTA], for which the binding signal was 11.2.

On to CCTCAAGA [8-mer CCTCAAGA], for which the binding signal was 10.6.

For the sequence AGTACTTA [8-mer AGTACTTA], the binding signal is 10.9.

As for CACTTGAG [8-mer CACTTGAG], the binding signal was 10.6.

With CTTCCCCC [8-mer CTTCCCCC], the binding signal is 10.

As to CAAGTACC [8-mer CAAGTACC], the binding signal was 10.7.

In the case of AACACGGC [8-mer AACACGGC], the binding signal is 10.3.

In the case of AGCTCTTG [8-mer AGCTCTTG], the binding signal was 10.6.

As for ATACTTCA [8-mer ATACTTCA], the binding signal was 10.8.

On to GTACTTCA [8-mer GTACTTCA], for which the binding signal is 10.8.

Regarding ACTTAAGT [8-mer ACTTAAGT], the binding signal was 10.8.

For ACAAGTAC [8-mer ACAAGTAC], the binding signal was 10.9.

On to GCACTCGA [8-mer GCACTCGA], for which the binding signal is 10.6.

For CGGGAACC [8-mer CGGGAACC], the binding signal was 10.1.

In the case of AAGTGGGG [8-mer AAGTGGGG], the binding signal is 10.4.

Take CCTCTTGA [8-mer CCTCTTGA]: the binding signal was 10.6.

Regarding AAGTACTC [8-mer AAGTACTC], the binding signal is 10.6.

Consider GCAGGCAC [8-mer GCAGGCAC], for which the binding signal was 10.2.

With CGGCGTAC [8-mer CGGCGTAC], the binding signal is 10.3.

As to AAGTACCT [8-mer AAGTACCT], the binding signal is 10.6.

In the case of GCAGGGGC [8-mer GCAGGGGC], the binding signal was 9.96.

For the sequence CCCGGGCA [8-mer CCCGGGCA], the binding signal was 10.

On to CACTTACC [8-mer CACTTACC], for which the binding signal is 10.8.

As for CAGCCCTG [8-mer CAGCCCTG], the binding signal is 10.2.
